pKi: −log10 of the molar value. *1 amine or outer side, *2 acyl side, *3 side chain or, on linkers, in order; H or OH if unused. Where a SMILES comes first, the peptide text is derived from it. [ ]: non-standard residue; d: D form. The star is where a group is joined. ξ: configuration not given here. Pro(trans-4-Ph) = O=C(O)[C@@H]1C[C@@H](c2ccccc2)CN1; Isobutyloxycarbonyl = CC(C)COC(=O)*; X2 = CCCC(N[*:1])C(=O)C(=O)[*:2]; Chg = N[C@H](C(=O)O)C1CCCCC1; Phg = N[C@H](C(=O)O)c1ccccc1; Tle = CC(C)(C)[C@H](N)C(=O)O; X63 = COc1ccc(OC)c(C(=O)*)n1; Cbz = O=C(OCc1ccccc1)*; Boc = CC(C)(C)OC(=O)*; ξPip = O=C(O)C1CCCCN1; OAll = C=CCO*; OPr = CCCO*
These compounds were tested against HCV NS3/NS4A protease (strain 1a) (Hepatitis C virus genotype 1a, UniProt P27958) (assay: biochemical). Details: HCV protease continuous assay results, Table 1; read-out: Ki* Range.

| SMILES | pKi |
| --- | --- |
| CCCC(NC(=O)[C@@H]1CCCN1C(=O)[C@@H](NC(=O)OCC(C)C)C(C)C)C(=O)C(=O)NCC(=O)N1CCC(C(=O)OCC)CC1 (stereo partly shown) [Example 15] | < 6.00 |
| CCCC(NC(=O)[C@@H]1CCCN1C(=O)[C@@H](NC(=O)OCC(C)C)C(C)C)C(=O)C(=O)NCC(=O)N1CCCC(C(=O)OCC)C1 (stereo partly shown) [Example 16] | < 6.00 |
| CCCC(NC(=O)[C@@H]1CCCN1C(=O)[C@@H](NC(=O)OCC(C)C)C(C)C)C(=O)C(=O)NCC(=O)N[C@H](C(=O)OC)[C@@H](C)CC (stereo partly shown) [Example 17] (Isobutyloxycarbonyl-VP[X2]GI-OMe) | < 6.00 |
| CCCC(NC(=O)[C@@H]1CCCN1C(=O)[C@@H](NC(=O)OCC(C)C)C(C)C)C(=O)C(=O)NCC(=O)N[C@@H](CC(=O)O)C(=O)O (stereo partly shown) [Example 18] (Isobutyloxycarbonyl-VP[X2]GD-OH) | < 6.00 |
| CCCC(NC(=O)[C@@H]1CCCN1C(=O)[C@@H](NC(=O)OCC(C)C)C(C)C)C(=O)C(=O)NCC(=O)N[C@@H](CCC(=O)O)C(=O)O (stereo partly shown) [Example 20] (Isobutyloxycarbonyl-VP[X2]GE-OH) | < 6.00 |
| CCCC(NC(=O)[C@@H]1CCCN1C(=O)[C@@H](NC(=O)OCC(C)C)C(C)C)C(=O)C(=O)NCC(=O)N1CCCCC1C(=O)O (stereo partly shown) [Example 21] (Isobutyloxycarbonyl-VP[X2]G[ξPip]-OH) | < 6.00 |
| CCCC(NC(=O)[C@@H]1CCCN1C(=O)[C@@H](NC(=O)OCC(C)C)C(C)C)C(=O)C(=O)NCC(=O)N1CCC(C(=O)O)CC1 (stereo partly shown) [Example 22] | < 6.00 |
| CCCC(NC(=O)[C@@H]1CCCN1C(=O)[C@@H](NC(=O)OCC(C)C)C(C)C)C(=O)C(=O)NCC(=O)N1CCCC(C(=O)O)C1 (stereo partly shown) [Example 23] | < 6.00 |
| CCCC(NC(=O)[C@@H]1CCCN1C(=O)[C@@H](NC(=O)OCC(C)C)C(C)C)C(=O)C(=O)NCC(=O)N[C@H](C(=O)O)[C@@H](C)CC (stereo partly shown) [Example 24] (Isobutyloxycarbonyl-VP[X2]GI-OH) | < 6.00 |
| C=CCNC(=O)C(=O)[C@H](CCC)NC(=O)[C@@H]1CCCN1C(=O)[C@@H](NC(=O)/C=C/c1cc(OC)c(OC)c(OC)c1)C(C)C [Example 25] | < 6.00 |
| C=CCNC(=O)C(=O)[C@H](CCC)NC(=O)[C@@H]1CCCN1C(=O)[C@@H](NC(=O)CCCCCc1ccccc1)C(C)C [Example 26] | < 6.00 |
| C=CCNC(=O)C(=O)[C@H](CCC)NC(=O)[C@@H]1CCCN1C(=O)[C@@H](NC(=O)C1CCCO1)C(C)C (stereo partly shown) [Example 27] | < 6.00 |
| C=CCNC(=O)C(=O)[C@H](CCC)NC(=O)[C@@H]1CCCN1C(=O)[C@@H](NC(=O)CC1C(C)C(C(C)=O)C1C)C(C)C (stereo partly shown) [Example 28] | < 6.00 |
| C=CCNC(=O)C(=O)[C@H](CCC)NC(=O)[C@@H]1CCCN1C(=O)[C@@H](NC(=O)O[C@H]1C[C@@H](C)CC[C@@H]1C(C)C)C(C)C [Example 29] | < 6.00 |
| C=CCNC(=O)C(=O)[C@H](CCC)NC(=O)[C@@H]1CCCN1C(=O)[C@@H](NC(=O)CC[C@H](NC(=O)OCc1ccccc1)C(=O)OC(C)(C)C)C(C)C [Example 30] | < 6.00 |
| C=CCNC(=O)C(=O)[C@H](CCC)NC(=O)[C@@H]1CCCN1C(=O)[C@@H](NC(=O)CC[C@H](NC(=O)OCc1ccccc1)C(=O)O)C(C)C [Example 31] | < 6.00 |
| C=CCNC(=O)C(=O)[C@H](CCC)NC(=O)[C@@H]1CCCN1C(=O)[C@@H](NC(=O)CC[C@H](N)C(=O)O)C(C)C [Example 32] | < 6.00 |
| C=CCOC(=O)CNC(=O)C(=O)C(CCC)NC(=O)[C@@H]1CCCN1C(=O)[C@@H](NC(=O)[C@@H](NC(=O)OC(C)(C)C)C(C)C)C(C)C (stereo partly shown) [Example 33] (Boc-VVP[X2]G-OAll) | < 6.00 |
| C=CCOC(=O)CNC(=O)C(=O)C(CCC)NC(=O)[C@@H]1CCCN1C(=O)[C@@H](NC(=O)[C@@H](NC(=O)OCC(C)C)C(C)C)C(C)C (stereo partly shown) [Example 34] (Isobutyloxycarbonyl-VVP[X2]G-OAll) | < 6.00 |
| C=CCOC(=O)CNC(=O)C(=O)C(CCC)NC(=O)[C@@H]1CCCN1C(=O)[C@@H](NC(=O)[C@@H](NC(C)=O)C(C)C)C(C)C (stereo partly shown) [Example 35] (Ac-VVP[X2]G-OAll) | < 6.00 |
| C=CCOC(=O)CNC(=O)C(=O)C(CCC)NC(=O)[C@@H]1CCCN1C(=O)[C@@H](NC(=O)[C@@H](N)C(C)C)C(C)C (stereo partly shown) [Example 36] (H-VVP[X2]G-OAll) | < 6.00 |
| CCCC(NC(=O)[C@@H]1CCCN1C(=O)[C@@H](NC(=O)[C@@H](NC(C)=O)C(C)C)C(C)C)C(=O)C(=O)NCC(=O)O (stereo partly shown) [Example 37] (Ac-VVP[X2]G-OH) | < 6.00 |
| CCCC(NC(=O)[C@@H]1CCCN1C(=O)[C@@H](NC(=O)[C@@H](NC(=O)OCC(C)C)C(C)C)C(C)C)C(=O)C(=O)NCC(=O)O (stereo partly shown) [Example 38] (Isobutyloxycarbonyl-VVP[X2]G-OH) | < 6.00 |
| C=CCOC(=O)CNC(=O)C(=O)C(CCC)NC(=O)[C@@H]1C[C@@H]2CCCC[C@@H]2N1C(=O)OC(C)(C)C (stereo partly shown) [Example 39] | < 6.00 |
| C=CCOC(=O)CNC(=O)C(=O)C(CCC)NC(=O)[C@@H]1C[C@@H]2CCCC[C@@H]2N1C(=O)C(NC(=O)OC(C)(C)C)C1CCCCC1 (stereo partly shown) [Example 40] | < 6.00 |
| C=CCNC(=O)C(=O)C(CCC)NC(=O)[C@@H]1CCCN1C(=O)[C@@H](NC(=O)CCC[C@H](NC(=O)OCc1ccccc1)C(=O)OCc1ccccc1)C(C)C (stereo partly shown) [Example 41] | < 6.00 |

| SMILES | pKi |
| --- | --- |
| C=CCNC(=O)C(=O)[C@H](CCC)NC(=O)[C@@H]1CCCN1C(=O)[C@@H](NC(=O)CCC[C@H](N)C(=O)O)C(C)C [Example 42] | < 6.00 |
| C=CCOC(=O)CNC(=O)C(=O)C(CCC)NC(=O)[C@@H]1CCCN1C(=O)[C@@H]1Cc2ccccc2CN1C(=O)OC(C)(C)C (stereo partly shown) [Example 43] | < 6.00 |
| C=CCOC(=O)CNC(=O)C(=O)C(CCC)NC(=O)[C@@H]1CCCN1C(=O)[C@@H](NC(=O)OC(C)(C)C)C1CCCCC1 (stereo partly shown) [Example 44] | < 6.00 |
| CCCOC(=O)CNC(=O)C(=O)C(CCC)NC(=O)[C@@H]1C[C@@H]2CCCC[C@@H]2N1C(=O)OC(C)(C)C (stereo partly shown) [Example 45] | < 6.00 |
| C=CCNC(=O)C(=O)C(CCC)NC(=O)[C@@H]1CCCN1C(=O)[C@@H](NC(=O)[C@H](Cc1ccccc1)NC(=O)OC(C)(C)C)C(C)C (stereo partly shown) [Example 46] | < 6.00 |
| C=CCOC(=O)CNC(=O)C(=O)C(CCC)NC(=O)[C@@H]1C[C@@H]2CCCC[C@@H]2CN1C(=O)OCc1ccccc1 (stereo partly shown) [Example 47] | < 6.00 |
| CCCOC(=O)CNC(=O)C(=O)C(CCC)NC(=O)[C@@H]1C[C@@H]2CCCC[C@@H]2CN1C(=O)OCc1ccccc1 (stereo partly shown) [Example 48] | < 6.00 |
| CCCC(NC(=O)[C@@H]1C[C@@H]2CCCC[C@@H]2CN1C(=O)OCc1ccccc1)C(=O)C(=O)NCC(=O)O (stereo partly shown) [Example 49] | < 6.00 |
| C=CCOC(=O)CNC(=O)C(=O)C(CCC)NC(=O)[C@@H]1CCCN1C(=O)[C@@H](NC(=O)OCC(C)C)C1CCCCC1 (stereo partly shown) [Example 51] | < 6.00 |
| C=CCOC(=O)CNC(=O)C(=O)C(CCC)NC(=O)[C@@H]1CCCN1C(=O)[C@@H](NC(=O)c1cnccn1)C1CCCCC1 (stereo partly shown) [Example 53] | < 6.00 |
| CCCC(NC(=O)[C@@H]1CCCN1C(=O)[C@@H](NC(=O)OCC(C)C)C1CCCCC1)C(=O)C(=O)NCC(=O)O (stereo partly shown) [Example 54] | < 6.00 |
| CCCC(NC(=O)[C@@H]1CCCN1C(=O)[C@@H](NC(=O)[C@H](CC(C)C)NC(=O)OCc1ccccc1)C1CCCCC1)C(=O)C(=O)NCC(=O)O (stereo partly shown) [Example 55] (Cbz-L[Chg]P[X2]G-OH) | < 6.00 |
| C=CCNC(=O)C(=O)C(CCC)NC(=O)[C@@H]1CCCN1C(=O)[C@@H](NC(=O)[C@@H](N)Cc1ccccc1)C(C)C (stereo partly shown) [Example 56] | < 6.00 |
| C=CCOC(=O)CNC(=O)C(=O)C(CCC)NC(=O)[C@@H]1CCCN1C(=O)C(NC(=O)OCC1c2ccccc2-c2ccccc21)C1c2ccccc2CCc2ccccc21 (stereo partly shown) [Example 57] | < 6.00 |
| CCCC(NC(=O)[C@@H]1CCCN1C(=O)[C@H](CC1CCCCC1)NC(=O)OC(C)(C)C)C(=O)C(=O)NCC(=O)O (stereo partly shown) [Example 58] | < 6.00 |
| C=CCOC(=O)CNC(=O)C(=O)C(CCC)NC(=O)[C@@H]1CCCN1C(=O)[C@H](CC1CCCCC1)NC(=O)OC(C)(C)C (stereo partly shown) [Example 59] | < 6.00 |
| C=CCNC(=O)C(=O)C(CCC)NC(=O)[C@@H]1CCCN1C(=O)[C@H](CC1CCCCC1)NC(=O)OC(C)(C)C (stereo partly shown) [Example 60] | < 6.00 |
| CCCOC(=O)CNC(=O)C(=O)C(CCC)NC(=O)[C@@H]1CCCN1C(=O)[C@@H](NC(=O)[C@@H](NC(=O)OC(C)(C)C)C(C)(C)C)C(C)C (stereo partly shown) [Example 61] (Boc-[Tle]VP[X2]G-OPr) | < 6.00 |
| CCCC(NC(=O)[C@@H]1C[C@@H]2CCCC[C@@H]2CN1C(=O)[C@@H](NC(=O)OC(C)(C)C)C1CCCCC1)C(=O)C(=O)NCC(=O)OCc1ccccc1 (stereo partly shown) [Example 62] | < 6.00 |
| CCC[C@@H](NC(=O)[C@@H]1C[C@@H]2CCCC[C@@H]2CN1C(=O)[C@@H](NC(=O)OC(C)(C)C)C1CCCCC1)C(=O)C(=O)NCC(=O)O [Example 63] | < 6.00 |
| C=CCOC(=O)CNC(=O)C(=O)C(CCC)NC(=O)[C@@H]1CCCN1C(=O)[C@@H](NC(=O)c1nc(OC)ccc1OC)C1CCCCC1 (stereo partly shown) [Example 64] | < 6.00 |
| C=CCOC(=O)CNC(=O)C(=O)C(CCC)NC(=O)[C@@H]1CCCN1C(=O)[C@@H](NC(=O)[C@@H](NC(=O)c1nc(OC)ccc1OC)C(C)C)C1CCCCC1 (stereo partly shown) [Example 65] (X63-V[Chg]P[X2]G-OAll) | < 6.00 |
| CCCC(NC(=O)[C@@H]1CCCN1C(=O)C(NC(=O)[C@@H](NC(=O)OC(C)(C)C)C(C)C)C1c2ccccc2CCc2ccccc21)C(=O)C(=O)NCC(=O)O (stereo partly shown) [Example 66] | < 6.00 |
| CCCC(NC(=O)[C@@H]1C[C@@H](c2ccccc2)CN1C(=O)[C@@H](NC(=O)OC(C)(C)C)C1CCCCC1)C(=O)C(=O)NCC(=O)N[C@H](C(=O)OC)c1ccccc1 (stereo partly drawn) [Example 68] (Boc-[Chg][Pro(trans-4-Ph)][X2]G[Phg]-OMe) | 6.00 to 7.00 |
| CCCC(NC(=O)[C@@H]1C[C@@H](c2ccccc2)CN1C(=O)[C@@H](NC(=O)OC(C)(C)C)C1CCCCC1)C(=O)C(=O)NCC(=O)NCc1ccccc1OC (stereo partly shown) [Example 70] | < 6.00 |

Same assay, conditions: Ki* Range, HCV protease continuous assay results, Table 1

| SMILES | pKi |
| --- | --- |
| C=CCOC(=O)CNC(=O)C(=O)[C@H](CCC)NC(=O)[C@@H]1CCCN1C(=O)[C@@H](NC(=O)Oc1ccc(C(=O)OC)cc1)C1CCCCC1 [Example 50] | < 6.00 |

— patent US7592316B2, “Peptides as NS3-serine protease inhibitors of hepatitis C virus” (Schering Corporation, priority 2000, dated 2009)
